# Source: PMC12136788
# Some of the results follow.
# B1: chr16:42174308:42174309:+_ENSMUSG00000061080_ENSMUST00000099761|mus_hu|FALSE|FALSE (ssRNA)
# RNA: GGGAGUUCUACAGUCCGACGAUCUAUUCUGUGUGACGCAUUUUUGUGUGUUUUUUAAAUUAUUUUUAAAUUUUUAUUCUAUUAACAUUUGCUGAGAAGGCAGAGCAGAGAUGCUGCCAGCAGCCACAGUGGUACGGCCAGACUCAACAGAGGAUUGAGCAUCA
# B2: chr14:21542388:21542389:+_ENSMUSG00000021819_ENSMUST00000022358|mus_hu|FALSE|FALSE (ssRNA)
# RNA: GGGAGUUCUACAGUCCGACGAUCGAAGGCGCUGCGGGCACUCCGGAUCGCAUUCACAAAGUCGUCGUAGUCCGCAGGAGUCAGGUGAAUCAAGCGGUGGUGGAUGUACUGCAUGUAUGCCUGCUGGCAGCGCUGCACCAGUUGCAACAGAGGAUUGAGCAUCA
# B3: chr7:135049633:135049634:+_ENSMUSG00000030802_ENSMUST00000151451|mus_hu|FALSE|FALSE (ssRNA)
# RNA: GGGAGUUCUACAGUCCGACGAUCGUCAGGCUUGUCCUCAUGCAGCGCCAGGUGAUGCGUGGCCAACAUGCGGAUUCCAAGCCUCGAAGUCAGCGUCUUGUCCAAGAAGUAGCGGACGAGCUUUUCAUCCUCUAUGUGCUUCCGCAACAGAGGAUUGAGCAUCA
# B4: chr16:20683585:20683586:+_ENSMUSG00000045983_ENSMUST00000044783|mus_mus|FALSE|FALSE (ssRNA)
# RNA: GGGAGUUCUACAGUCCGACGAUCUAUUGCUUCUGUUAACAUCUUCAACUUGAAUAACUCUCCAAUAAACUUGAUAUUCCCUAAAGAGCGCCGCCUAGCUAUGUCCCGGGCUUCUUCUAGCUCUUCUUUCAGGCGUCCCCGUUCCAACAGAGGAUUGAGCAUCA
# B5: 191362397_191364812_2319_CDS_ENSG00000151690_ENST00000281416|human|control|control (ssRNA)
# RNA: GGGAGUUCUACAGUCCGACGAUCGUCAGAGUGAGUCUCACAUGGGACAGGCUGGGCUCUACCAGCAGGAGAAUUUUCCCUAUUCUCAUUGGUCCCCUGUAAAGGCUGUAUCUCAGAAGCACGGUUGUCUCUUGUGAGUUGCAUCAACAGAGGAUUGAGCAUCA
# B6: chr5:24101842:24101843:-_ENSMUSG00000028949_ENSMUST00000030791|mus_hu|FALSE|FALSE (ssRNA)
# RNA: GGGAGUUCUACAGUCCGACGAUCCUCCUGGAUGUCCACCCGCUUCCGCAUGAUGGUUUGAUCCAGUUUCCUCUCAAAUGCCAAGAGGUCCAUGUAAGCCUGGGACUCGGGGACCAGCUCCCGAAUCCUUUGAGGGAGGAUUUUCAACAGAGGAUUGAGCAUCA
# B7: chr14:21833301:21833302:-_ENSG00000092201_ENST00000216297|hu_mus|motif|central (ssRNA)
# RNA: GGGAGUUCUACAGUCCGACGAUCAUUGAUGCUAAAAACCAUCCCUUUCUUUAGCUUGUACUGAUUUUUACUAUUGAUUACGGGAGAGCCUUCACGGAAUUCAAUUCCCAUCCCAAAUCCUAGAUUCUUUGUAAUUUUGUUCAGCAACAGAGGAUUGAGCAUCA
# B8: 84350868_84366539_748_CDS_ENSG00000065609_ENST00000520302|human|control|control (ssRNA)
# RNA: GGGAGUUCUACAGUCCGACGAUCGUAAAUUUCUAGAGCAUCUUUACAUUGUCCUUUCUUCAUUUCAAAAAACUUUUCGAGUAAGUUAAUAACACCAUCAUUGUAGCAAGCAAAAAGUUUGAUAAGAUCUUUGAAAAGAAGCAUCAACAGAGGAUUGAGCAUCA
# B9: chr6:13577978:13577979:-_ENSMUSG00000042742_ENSMUST00000045235|mus_mus|FALSE|FALSE (ssRNA)
# RNA: GGGAGUUCUACAGUCCGACGAUCAUAUAAAAAUUUGUCACCAAUUUCAAAAAGUUCAGGAAUACUGGAUUGUUAGAUGAAACUGAGUAGAAACUGUUUUCUGCAGAAGGUAACAAUUUAAAGAAAAAGACAAAUAUGUACCACCAACAGAGGAUUGAGCAUCA
# B10: chr1:202702741:202702742:-_ENSG00000117139_ENST00000367264|hu_mus|motif|central (ssRNA)
# RNA: GGGAGUUCUACAGUCCGACGAUCUUCAGGAAGACGAACUCGUAUACGCUGUAGGGAGGCCAGCAGAGGCAGAAUUUUCUCGGAUGGAGGCUUCUCUGACCUCCGACAGUGAGGACAAAGCCAGAUUCGGGAGCUUUGUGAAAUCAACAGAGGAUUGAGCAUCA
# B11: 55459207_55460516_229_CDS_ENSG00000143947_ENST00000402285|human|control|control (ssRNA)
# RNA: GGGAGUUCUACAGUCCGACGAUCCGUAUCCGAGGGUUCAACCUCGAGGGUGAUGGUCUUCCCCGUAAGGGUUUUCACGAAAAUCUGCAUUUUGGUGGCGGCUCCACUUCCAGAAGCGGUGAUGGGCAGAGAAUCAGCAAUCUACAACAGAGGAUUGAGCAUCA
# B12: chr13:48664549:48664550:-_ENSG00000136146_ENST00000378586|hu_hu|FALSE|FALSE (ssRNA)
# RNA: GGGAGUUCUACAGUCCGACGAUCUGGUUUUCCUCUCCAGCCUGUAACAACUUUUGGUUUCUUGAAAUUGCCAGCAUUUCUAUAAGUUCCCACUCGAAGACGCAGCCAUUUUCCCCAGAGUCCCGCCACCGGCGCACGCGCAGACAACAGAGGAUUGAGCAUCA
# B13: 75309900_75310020_3645_CDS_ENSMUSG00000020850_ENSMUST00000102510|mouse|control|control (ssRNA)
# RNA: GGGAGUUCUACAGUCCGACGAUCGGUGAACUCUUCAUAGCUGGUACGGCACUUAGGCAGGAUGCGGCACUCAAAGCCACACAUGUUGAAUAGCAGGUUGGGGUUGUCUUUACUGUACACAGACACAAAGCUAUUCUCCCACUGCAACAGAGGAUUGAGCAUCA
# B14: 10741114_10743348_1180_CDS_ENSMUSG00000024294_ENSMUST00000052838|mouse|control|control (ssRNA)
# RNA: GGGAGUUCUACAGUCCGACGAUCCACUCCUCGCACCACUCUGGCACCAGCAAAGAUUCCUCUGGCUGUAAUCUUCUUAGAUUUUCUACGAGACUCUAACAGAACCCGUUCACUUCCUGGUGUAGUAAUCCUAUAAAAGCGAUGCAACAGAGGAUUGAGCAUCA
# Biological target: T1, UNK ZnF1-3 (human, UniProt Q9C0B0 31-174)
# T1 sequence: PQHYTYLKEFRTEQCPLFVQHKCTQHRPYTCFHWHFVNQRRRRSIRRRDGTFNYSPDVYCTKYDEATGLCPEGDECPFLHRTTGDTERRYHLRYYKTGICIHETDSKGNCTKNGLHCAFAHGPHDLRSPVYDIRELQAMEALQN
# Assay: nsRBNS (natural sequence RNA bind-n-seq); RBNS binding buffer (assumed for nsRBNS): 25 mM Tris pH 7.5, 150 mM KCl, 3 mM MgCl2, 0.01% Triton X-100, 500 ug/ml BSA, 20 U/ml SUPERase-In, 4 C; UNK is unkempt and MSI1 is Musashi-1; names of the RNAs are library labels; protein concentration not given here; high values mean tight binding
row,Binder,binding signal
1,B1,2.34 enrichment R
2,B2,1.13 enrichment R
3,B3,0.273 enrichment R
4,B4,0.573 enrichment R
5,B5,0.746 enrichment R
6,B6,0.648 enrichment R
7,B7,0.763 enrichment R
8,B8,0.923 enrichment R
9,B9,1.07 enrichment R
10,B10,1.06 enrichment R
11,B11,1.28 enrichment R
12,B12,1.39 enrichment R
13,B13,1.11 enrichment R
14,B14,1.07 enrichment R
